Laboratory results reported in the BET-seq Pho4 binding data (Le et al. 2018).
The other results are listed elsewhere or left out. These are noisy estimates, calculated here from bound and input reads.

What follows are sequences tested against T1, Pho4 (S. cerevisiae) (UniProt P07270) (assay: relative binding free energy (BET-seq); higher = weaker binding). Settings: reference: library average.
T1 sequence: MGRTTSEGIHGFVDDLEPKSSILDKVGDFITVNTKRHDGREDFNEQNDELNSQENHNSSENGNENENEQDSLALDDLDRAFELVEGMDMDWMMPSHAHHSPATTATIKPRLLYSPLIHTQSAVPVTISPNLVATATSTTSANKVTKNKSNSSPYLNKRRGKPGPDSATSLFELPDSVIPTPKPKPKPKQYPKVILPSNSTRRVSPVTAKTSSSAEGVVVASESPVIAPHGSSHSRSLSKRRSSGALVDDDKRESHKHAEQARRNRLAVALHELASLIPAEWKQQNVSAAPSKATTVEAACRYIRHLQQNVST

Sequence	relative binding free energy [kcal/mol]
GTTAACACGTGAGTGC	0.29
TAGTGCACGTGGTTCG	-0.01
TGTCGCACGTGGATAG	-0.07
ATTATCACGTGATGAA	0.32
TAGTGCACGTGTAGGC	-0.02
GTTCACACGTGGTGTA	0.06
GCGGGCACGTGCGTCG	-0.06
GGTATCACGTGTGGTG	0.2
AGGGTCACGTGATTAT	0.31
GGTAGCACGTGGTCGA	-0.28
GTGAGCACGTGGTCGC	-0.16
CCGTACACGTGGGGGG	-0.21
ATAAGCACGTGTAGTT	-0.16
GTAGGCACGTGTAAGC	0.04
GTTCACACGTGTGGGG	0.14
AGGTACACGTGGGAGC	-0.12
TTGGGCACGTGCTGTT	-0.12
TGAAACACGTGTGGTC	0.06
TGGGTCACGTGGTAGG	0.12
AGTTCCACGTGTCGGT	0.04
GAGGGCACGTGAGTTG	0.2
CACGGCACGTGAGTGG	0.13
TGACGCACGTGGAGTG	-0.23
GGCTGCACGTGGGTCT	-0.04
TTAGTCACGTGTAAAT	0.23

Sequence	relative binding free energy [kcal/mol]
CAATTCACGTGTTGTG	0.2
TTTTTCACGTGGGTAC	0.14
AAGTACACGTGGGTTA	0.06
AATGTCACGTGGGTGG	0.03
GGTGGCACGTGCTGTA	-0.04
TAGCGCACGTGGGCGT	-0.31
AATGACACGTGTCGGG	0.13
TTGTACACGTGAGTAA	0.28
AAGTTCACGTGGAGTT	0.39
GGGAGCACGTGAGGCA	0.07
CTAGTCACGTGTGGCA	0.13
GGGTTCACGTGCGAGG	0.35
CAGTGCACGTGTAGTA	0.03
TACTTCACGTGGTGCT	0.18
TATGACACGTGAGGTA	0.34
TGAATCACGTGTAGGC	0.13
TTTCTCACGTGTGCGG	0.29
AAGCGCACGTGTTGTG	-0.11
GGTTGCACGTGAATTA	0.22
AGCGACACGTGGTTGA	0.09
AACTTCACGTGTTTGT	0.38
GGTTTCACGTGTTCGC	0.3
AAAGGCACGTGTTTTG	0.06
GCGTTCACGTGGGGCA	0.28
ACCTTCACGTGTGGTG	0.29

Sequence	relative binding free energy [kcal/mol]
TGTCGCACGTGATTTA	0
GGTTGCACGTGGGTCG	-0.08
CGGAACACGTGGAGTA	0.14
GAAAGCACGTGAGTGG	0.28
TTATACACGTGGTATC	0.02
GATGGCACGTGTTCAG	-0.06
TGTCTCACGTGAGGGT	0.31
GGAGTCACGTGAGATG	0.28
GGGAGCACGTGTGTAT	0.02
AGCGTCACGTGGCTGG	-0.08
GGCGTCACGTGGGGAG	0.02
TCTGGCACGTGTGGCT	-0.06
ATGTGCACGTGCGTTG	-0.21
GTTTGCACGTGGATGG	0.09
TAGGGCACGTGAAGGG	0.13
GGCTACACGTGGCGGT	0.3
GGGTTCACGTGAATTA	0.26
AGTGGCACGTGTGAAC	0.03
GCTCTCACGTGGCGGG	0.38
TGGGACACGTGGAGGC	0.05
GGGGCCACGTGAAGTG	0.02
GGTTCCACGTGGTGGA	0
CGTGGCACGTGATTAG	0.03
GAGTGCACGTGTAGGC	0.03
TTTTGCACGTGGGATC	-0.1

Sequence	relative binding free energy [kcal/mol]
ATTAACACGTGGTGTT	-0.06
TGCGGCACGTGTGAGA	-0.06
ATAGTCACGTGATCGT	0.09
GGTGGCACGTGCGATT	-0.04
AGTGACACGTGAGGTG	0.12
GAGGCCACGTGGGTTT	-0.22
GCAGGCACGTGTGAGT	0.07
GGATGCACGTGTTGTC	-0.05
CGTAGCACGTGTATAG	-0.09
TTAGTCACGTGGCTTT	-0.06
TTCATCACGTGGTGAG	0.17
GACGTCACGTGTTTGT	0.11
TATCGCACGTGAGTAT	0.08
AGCCTCACGTGGGGTT	0.06
AAGTACACGTGTGTAG	-0.04
GGTGGCACGTGGCGGA	-0.07
AGTCTCACGTGTGGTC	0.25
ACTGACACGTGGGGGT	-0.17
TTAGACACGTGGCAGG	-0.04
AGTGACACGTGGACGT	0.1
GTAATCACGTGGAGTG	0.15
CTGATCACGTGGGTAG	0.05
AAGAGCACGTGGGAGT	-0.2
CGTTACACGTGGAGTT	0.26
TACGGCACGTGCGCGG	-0.14

Sequence	relative binding free energy [kcal/mol]
ATTTTCACGTGTCTGC	0.32
TCTGGCACGTGGGTGT	-0.16
GTGTACACGTGTTTTA	0.16
AGTCGCACGTGACGGT	0.03
AAGTTCACGTGTTTAA	0.29
GTTTGCACGTGTGTTT	0.15
TTGAGCACGTGATGCG	0
CCAGGCACGTGAAGGG	0.21
GGGCGCACGTGTGCAG	-0.17
TTAAACACGTGGATTG	-0.06
TTTGGCACGTGATAAG	0
GTTCACACGTGGGCAG	0.1
TATTGCACGTGATTGC	-0.06
TTTAGCACGTGTCAGA	-0.05
AGTGCCACGTGGTTTG	-0.2
TAGGTCACGTGGGCGA	0
ATTGGCACGTGAGGAG	0.1
TGGGGCACGTGTCACG	-0.19
TCTAACACGTGGTGTA	0
TAAGTCACGTGTATAT	0.14
TGGTGCACGTGTGTTA	0.05
TATGGCACGTGTTGCG	-0.06
TGCATCACGTGGATGG	0.09
AGTATCACGTGGGACG	-0.05
GTTTTCACGTGCACGT	0.23

Sequence	relative binding free energy [kcal/mol]
GTAAGCACGTGAGTTA	0.2
AGGTCCACGTGAGGGG	0.24
GTAGTCACGTGGCTTA	0.03
AGATGCACGTGGTAGG	-0.01
AAAGGCACGTGGGGGC	-0.21
CTAGGCACGTGGGTTT	-0.25
TTGGGCACGTGCCGGG	-0.14
TTGGGCACGTGCGTAG	-0.1
CGAGTCACGTGTGAAG	0.15
GGTGACACGTGGGGTC	-0.02
GGTGGCACGTGAAGAC	0.27
ACAAGCACGTGTTTTT	-0.01
AATTGCACGTGGGTGT	-0.2
ATTGGCACGTGCGGGT	-0.28
AAGGTCACGTGCTGTA	0.07
CGTGACACGTGCGTTT	0.02
TACGGCACGTGTGTGA	-0.08
TGTAACACGTGATTCT	0.28
GTTTACACGTGGGTTC	0.01
ATTGTCACGTGGTATT	0.02
AGTGTCACGTGCTAGG	-0.05
